Earlier results in US7012061B1 (New York University, priority 1998, dated 2006).

Tested on: brain tumor microvessel permeability
Conditions: rat, in vivo; cited from earlier work

Compound: COC(=O)[C@@H](N)CCCNC(=N)N[N+](=O)[O-] [NG-nitro-L-arginine methylester]
- Bradykinin-induced increase of tracer transport into brain tumors: significantly inhibited
